Experimental data taken from PubChem BioAssay (NCI).
“And” between values parts separate entries of the source, which are not always exact repeats. Equal entries are not always repeated.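 Tested at 5 concentrations; 48 h exposure; 96-well plates; endpoints linearly interpolated, else capped at highest concentration. At the GI50, growth is halved. The concentration for full growth arrest is given as TGI.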

Each compound was assayed on NCI-H322M lung (assay: NCI-60 cell line screen, 48 h).

Point of comparison: `C=C1C(=O)O[C@H]2[C@H]1CC/C(COC(=O)CCCc1c[nH]c3ccccc13)=C\CC[C@@]1(C)O[C@@H]21`, GI50 13.8 µM. Against it:
- Cc1nc2ccccn2c1NC(=O)NNC(=S)Nc1ccc(F)cc1 — higher, > 100 µM
- C=C1SC(=Nc2ccccc2Cl)N(C(=O)c2sc3ccccc3c2Cl)C12CCCCC2 — within 1.5-fold, 9.34 µM
- ClCc1ccccc1Cn1cnc2c(Cl)ncnc21 — 3.5-fold lower, 3.94 µM
- Cc1c(N)nc(C(CC(N)=O)NCC(N)C(N)=O)nc1C(=O)NC(C(=O)NC(C)C(O)C(C)C(=O)NC(C(=O)NCCc1nc(-c2nc(C(=O)NCCCNC(C)c3ccccc3)cs2)cs1)C(C)O)C(OC1OC(CO)C(O)C(O)C1OC1OC(CO)C(O)C(OC(N)=O)C1O)c1cnc[nH]1 (configuration not stated) — higher, > 100 µM
- C[C@]12CC[C@H]3[C@@H](CC4SC(N)=NC45C/C(=N/NC(N)=O)CC[C@]35C)[C@@H]1CCC2=O (some centres not stated) — 7.8-fold lower, 1.77 µM
- O=C1C=Cc2c1ccc1ccccc21 — 2.2-fold higher, 30.5 µM
- N#C/C(=N\Nc1ccccc1)C(=O)Nc1cc(-c2ccccc2)nn1-c1ccccc1 — 4.7-fold lower, 2.92 µM
- Clc1ccc2nc(CI)c(CI)nc2c1 — higher, > 45.6 µM
- COc1ccc(/C(C#N)=C/c2cc(OC)c(OC)c(OC)c2)cc1 — 3.4-fold higher, 46.7 µM
- CC([C@H]1CC=C2C3CCC4=C[C@@H](N(C)C)CC[C@]4(C)C3CC[C@@]21C)N(C)C (some centres not stated) — 4.5-fold lower, 3.05 µM
- CC(C)C(=O)c1c(C(F)(F)F)n([O-])c2cc(F)c(F)cc2[n+]1=O — 8.3-fold lower, 1.66 µM
- C=C1C(=O)O[C@H]2[C@H]1CC/C(Cn1cc(-c3ccc(F)cc3)nn1)=C\CC[C@@]1(C)O[C@@H]21 — 3.1-fold lower, 4.39 µM
- Cn1nc(C(F)(F)F)c(-c2cc(C(F)(F)F)cc(C(F)(F)F)c2)c1-c1ccc(OCc2ccc(Cl)cc2)cc1O — 5.3-fold lower, 2.6 µM
- O=C(CI)Nc1ccc(O)c2ccccc12 — 1.9-fold lower, 7.08 µM

Point of comparison: `C[C@]12CC[C@H]3[C@@H](CC4SC(N)=NC45C/C(=N/NC(N)=O)CC[C@]35C)[C@@H]1CCC2=O` (some centres not stated), TGI 3.55 µM. Against it:
- Cc1nc2ccccn2c1NC(=O)NNC(=S)Nc1ccc(F)cc1 — higher, > 100 µM
- C=C1SC(=Nc2ccccc2Cl)N(C(=O)c2sc3ccccc3c2Cl)C12CCCCC2 — higher, > 100 µM
- ClCc1ccccc1Cn1cnc2c(Cl)ncnc21 — 3.9-fold higher, 13.9 µM
- N#CC(C#N)=Cc1ccc(CP(=O)(O)O)cc1 — higher, > 100 µM
- COc1cccc2cc(C(=O)Nc3ccccc3)c(=N)oc12 — higher, > 100 µM
- CCCCc1c2cnccc2c(CCCC)c2c1[nH]c1ccccc12 — 13-fold higher, 46.6 µM
- N/C(=N\Nc1ccc(Cl)cc1)c1cnccn1 — higher, > 100 µM
- S=c1nc(N/N=C/c2cccs2)c2cn[nH]c2[nH]1 — 4.7-fold higher, 16.7 µM
- Cc1nc2c(cc1OCc1ccccc1)C(=O)C1=C(C2=O)C2OC(=O)CC2OC1(C)C (configuration not stated) — within 1.5-fold, 5.1 µM
- COC(=O)C(Cc1ccc(N(C)C)cc1)(NC(=O)c1ccccc1)P(=O)(OC)OC (configuration not stated) — higher, > 100 µM
- O=c1[nH]c2nccn2c2c1SCCN2 — higher, > 100 µM
- O=C(N/N=C\c1cccc2ccccc12)Nc1cccc2ccccc12 — higher, > 100 µM
- COC(=O)/C(C#N)=C(\N)C(Cl)(Cl)Cl — 5.1-fold higher, 18.2 µM
- O=C1CC(=O)NC(=NN2C(=O)CSC2C(=O)c2ccco2)N1 (configuration not stated) — higher, > 100 µM
- O=C1C=Cc2c1ccc1ccccc21 — higher, > 100 µM
- Cn1c2ccccc2c2cc(N3CCCC3)c3c(c21)C(=O)N(c1ccccc1)C3=O — higher, > 100 µM
- N#C/C(=N\Nc1ccccc1)C(=O)Nc1cc(-c2ccccc2)nn1-c1ccccc1 — 6.3-fold higher, 22.4 µM
- CN(C)CCOc1ccc(-c2c(Oc3ccccc3)c(=O)oc3ccccc23)cc1 — 5.1-fold higher, 18 µM
- Clc1ccc2nc(CI)c(CI)nc2c1 — higher, > 77.3 µM
- O=C(C#Cc1ccccc1)C1=Cc2ccccc2OC1 — 8.1-fold higher, 28.7 µM
- NCCNC(=O)c1cccc2cc3ccccc3nc12 — 3.3-fold higher, 11.6 µM
- CCOC(=O)C(Cc1ccccc1)NC(=O)c1[nH]cnc1/N=N/N(C)C (configuration not stated) — higher, > 100 µM
- COc1ccc(/C(C#N)=C/c2cc(OC)c(OC)c(OC)c2)cc1 — higher, > 100 µM
- O=C1CNC(=O)c2[nH]cnc2N1 — higher, > 100 µM
- COC(=O)C(=O)C(C(=O)C(=O)Nc1ccccc1OC)c1nc2ccc([N+](=O)[O-])cc2[nH]c1=O (configuration not stated) — higher, > 100 µM
- CCCCCCCCP(=O)(O)OP(=O)(O)OCC1OC(n2ccc(N)nc2=O)C(O)C1O (configuration not stated) — higher, > 100 µM
- O=C(OC1CN2CCC1CC2)N(c1ccccc1)c1ccccc1 (configuration not stated) — higher, > 100 µM
- CCOC(=O)/C=C(\C(=O)OCC)n1cc(Cl)c(=O)n(CC(=O)OCC)c1=O — 9.4-fold higher, 33.5 µM
- COc1cc(C2C3=C(CCCC3=O)N(c3ccc(C)cc3)C3=C2C(=O)CCC3)c([N+](=O)[O-])cc1OC — higher, > 100 µM
- CC(=O)NC(CSC1=C2NC(=O)\C=C/C=C/C=C\C(C)C(O)CC(=O)/C(C)=C\CC(O)/C=C/C(C)C(O)C(C)C=C(C)C(=O)c3c(O)c(C)cc(c3C1=O)C2=O)C(=O)O (configuration not stated) — higher, > 100 µM
- CC([C@H]1CC=C2C3CCC4=C[C@@H](N(C)C)CC[C@]4(C)C3CC[C@@]21C)N(C)C (some centres not stated) — 3.5-fold higher, 12.4 µM
- C=CC(C)C1(CCCOCc2ccccc2)C(=S)N2CCC3(CC24CCCC14)OCCO3 (configuration not stated) — higher, > 100 µM
- O=c1c2cnccc2cc2c3ccccc3ccn12 — higher, > 100 µM
- c1ccc(Nc2nn3c(CCCCCCCCc4nnc5sc(Nc6ccccc6)nn45)nnc3s2)cc1 — higher, > 100 µM
- CCOC(=O)C(=CNC(=S)N=Nc1c(O)[nH]c2ccccc12)C(=O)OCC — higher, > 100 µM
- Cc1ccc(N=Nc2c(O)ccc3cc(S(=O)(=O)O)ccc23)cc1 — higher, > 100 µM
- CN(CCCNC(=O)c1nn(C)c2c1Cc1ccccc1-2)CCCNC(=O)c1nn(C)c2c1Cc1ccccc1-2 — 8.4-fold higher, 29.7 µM
- CC(C)(C)N/N=C(\C(=O)Nc1nc(=S)[nH][nH]1)C1C(=O)Nc2ccccc2S1=O (configuration not stated) — higher, > 100 µM
- CC(=O)O[C@H]1C[C@@H](OC(C)=O)[C@@](C)(O)[C@@H]2[C@@H](OC(C)=O)[C@@]3(O)[C@H](/C=C(/CO)[C@H]4O[C@H]4[C@@H](OC(C)=O)[C@@]12C)OC(=O)[C@@H]3C — higher, > 25 µM
- CC(=O)C(C(C)=O)[C@@H]1OC(C)(C)O[C@@H]1[C@H]1COC(C)(C)O1 — higher, > 100 µM
- C=C1C(=O)O[C@H]2[C@H]1CC/C(COC(=O)CCCc1c[nH]c3ccccc13)=C\CC[C@@]1(C)O[C@@H]21 — 7.8-fold higher, 27.8 µM
- CC(C)C(=O)c1c(C(F)(F)F)n([O-])c2cc(F)c(F)cc2[n+]1=O — within 1.5-fold, 3.32 µM
- NC(=O)c1cccc(OCC(O)CO)c1 (configuration not stated) — higher, > 100 µM
- C=C1C(=O)O[C@H]2[C@H]1CC/C(Cn1cc(-c3ccc(F)cc3)nn1)=C\CC[C@@]1(C)O[C@@H]21 — 4.8-fold higher, 17.2 µM
- CC1=NOC(=O)/C1=C/c1ccc([N+](=O)[O-])cc1 — higher, > 100 µM
- Cn1nc(C(F)(F)F)c(-c2cc(C(F)(F)F)cc(C(F)(F)F)c2)c1-c1ccc(OCc2ccc(Cl)cc2)cc1O — 3-fold higher, 10.6 µM
- O=C(CI)Nc1ccc(O)c2ccccc12 — 6-fold higher, 21.3 µM
- C#CC1(O)CCC2[C@@H]3CCc4cc(Oc5nc(F)nc(-c6c7ccccc7c(SCC)n6CCC)n5)ccc4C3CC[C@@]21C (some centres not stated) — higher, > 100 µM
- COC(=O)C1CC(OC(C)=O)C=C2C(=O)CCC21 (configuration not stated) — higher, > 100 µM
- C=CCN1/C(=C2\SC(=S)N(c3ccc(C)cc3)C2=O)Sc2c1ncn(C)c2=O — higher, > 100 µM
- O=S(=O)(N=NC=C1c2ccccc2N(O)c2ccccc21)c1ccc(Cl)cc1 — higher, > 100 µM
- C=CCC1(C(=O)OC(C)(C)C)C(OC)=C(C(=O)OC(C)(C)C)C2C1C(C(=O)OC(C)(C)C)=C(OC)C2(CC=C)C(=O)OC(C)(C)C (configuration not stated) — higher, > 100 µM
- COC1=CC(=O)C=C(OC)C1=O — 7.2-fold higher, 25.6 µM
- CNC(=O)SCC(NC(=O)CCC(N)C(=O)O)C(=O)NCC(=O)O (configuration not stated) — higher, > 100 µM
- C#C[C@@]1(O)CCCC2=CC3(CC[C@]21C)SCCS3 — higher, > 100 µM
- CCCCc1ccc(Nc2nc(Cl)c3c(ncn3C3CC(Oc4ccc(C)cc4)C(COc4ccc(C)cc4)O3)n2)cc1 (configuration not stated) — higher, > 100 µM
- COc1ccc2c(c1)NC1(CCN(CCCC(=O)c3ccc(F)cc3)CC1)N=N2 — higher, > 100 µM
- CCN(CC)CCn1c(=O)c2c(C)c3oc4ccccc4oc3c(C)c2c1=O — higher, > 100 µM
- Cc1nc(/C=C2\C(=O)C=Cc3ccccc32)c(O)o1 — higher, > 100 µM
- C=CCOC(=O)N1c2ccc(O)cc2[C@@]23O[C@@]24[C@@H]1C#C/C=C\C#C[C@]3(O)C(OC)(OC)C[C@@H]4C — higher, > 100 µM
- Cc1cc2c(c(S(=O)(=O)c3ccccc3[N+](=O)[O-])c1)NCCC2 — higher, > 100 µM
- CC1CC(C)C2OC2(C)C[C@H](C)C(=O)NC(C)C(=O)N(C)[C@H](Cc2c(Br)[nH]c3ccccc23)C(=O)N[C@@H](c2ccc(O)cc2)CC(=O)O1 (some centres not stated) — 17-fold higher, 60.8 µM
- Cc1nc(N)nc(N)c1CCCc1ccccc1 — higher, > 100 µM
- CCCCc1ccc(Nc2nc(Cl)c3ccn(C4CC(Oc5ccc(C)cc5)C(COc5ccc(C)cc5)O4)c3n2)cc1 (configuration not stated) — higher, > 46.4 µM
- NC(=O)CC(N)C(=O)NC(Cc1ccccc1)C(=O)NC(Cc1ccccc1)NC(=O)C(Cc1c[nH]c2ccccc12)C(=O)O (configuration not stated) — higher, > 100 µM

With `Cc1c(N)nc(C(CC(N)=O)NCC(N)C(N)=O)nc1C(=O)NC(C(=O)NC(C)C(O)C(C)C(=O)NC(C(=O)NCCc1nc(-c2nc(C(=O)NCCCNC(C)c3ccccc3)cs2)cs1)C(C)O)C(OC1OC(CO)C(O)C(O)C1OC1OC(CO)C(O)C(OC(N)=O)C1O)c1cnc[nH]1` (configuration not stated) the TGI was 50 µM and > 100 µM.
